The other results are listed elsewhere or left out. Repeats are few or missing, and single values can be far off.
Each compound was assayed on 501Mel (assay: cell count relative to DMSO control; melanoma cells; higher = more viable cells). Conditions: library dose: standard library concentration; 72 h.
In the case of `Cn1cncc1[C@@](N)(c1ccc(Cl)cc1)c1ccc2c(c1)c(-c1cccc(Cl)c1)cc(=O)n2C` [tipifarnib] + C/C(O)=C(\C#N)C(=O)Nc1cc(Br)ccc1Br [LFM-A13] (first compound 0.05 µM, partner dose 10 µM), the cell count is reported as 73.6%.
Work on `OCc1c[nH]c2ccccc12` [Indole-3-carbinol] + C/C(O)=C(\C#N)C(=O)Nc1cc(Br)ccc1Br [LFM-A13] (first compound 4 µM, partner dose 10 µM) yielded a cell count of 75.3%.
For `Cc1cc(N2CCOCC2)cc2[nH]c(-c3c(NC[C@@H](O)c4cccc(Cl)c4)cc[nH]c3=O)nc12` + C/C(O)=C(\C#N)C(=O)Nc1cc(Br)ccc1Br [LFM-A13] (first compound 1 µM, partner dose 10 µM), the cell count was 64.9%.
`CS(=O)(=O)c1ccc(C(=O)Nc2ccc(Cl)c(-c3ccccn3)c2)c(Cl)c1` [vismodegib] + Cc1cc(SCc2sc(-c3ccc(C(F)(F)F)c(F)c3)nc2C)ccc1OCC(=O)O [GW0742] (first compound 5 µM, partner dose 10 µM) showed a cell count of 80.1%.
In the case of `Cn1sc(=O)n(Cc2ccccc2)c1=O` + C/C(O)=C(\C#N)C(=O)Nc1cc(Br)ccc1Br [LFM-A13] (first compound 2 µM, partner dose 10 µM), the cell count is reported as 110%.
`CO[C@@H]1[C@H](N(C)C(=O)c2ccccc2)C[C@H]2O[C@]1(C)n1c3ccccc3c3c4c(c5c6ccccc6n2c5c31)C(=O)NC4` [Midostaurin] + O=C(Oc1ccc([N+](=O)[O-])cc1)N1CCC(C(O)(c2ccc3c(c2)OCO3)c2ccc3c(c2)OCO3)CC1 [JZL184] (first compound 0.4 µM, partner dose 5 µM) gave a cell count of 82.5%.
Compound `O=C(Nc1ccccc1)c1cc([N+](=O)[O-])ccc1Cl` + C/C(O)=C(\C#N)C(=O)Nc1cc(Br)ccc1Br [LFM-A13] (first compound 10 µM, partner dose 10 µM) has a cell count of 83.9%.
`CC(=O)c1c(C)c2cnc(Nc3ccc(N4CCNCC4)cn3)nc2n(C2CCCC2)c1=O` [palbociclib] + Cc1cc(SCc2sc(-c3ccc(C(F)(F)F)c(F)c3)nc2C)ccc1OCC(=O)O [GW0742] (first compound 0.2 µM, partner dose 10 µM) gave a cell count of 56.5%.
In the case of `CCCCCCCCCCCCCCCCCCOP(=O)([O-])OC1CC[N+](C)(C)CC1` [Perifosine] + O=C(Oc1ccc([N+](=O)[O-])cc1)N1CCC(C(O)(c2ccc3c(c2)OCO3)c2ccc3c(c2)OCO3)CC1 [JZL184] (first compound 2 µM, partner dose 5 µM), the cell count is reported as 101%.
`O=C(Nc1ccccc1)c1cc([N+](=O)[O-])ccc1Cl` + O=C(Oc1ccc([N+](=O)[O-])cc1)N1CCC(C(O)(c2ccc3c(c2)OCO3)c2ccc3c(c2)OCO3)CC1 [JZL184] (first compound 10 µM, partner dose 5 µM) showed a cell count of 81.6%.
For `NC1(c2ccc(-c3nc4ccn5c(=O)[nH]nc5c4cc3-c3ccccc3)cc2)CCC1` + O=C(Oc1ccc([N+](=O)[O-])cc1)N1CCC(C(O)(c2ccc3c(c2)OCO3)c2ccc3c(c2)OCO3)CC1 [JZL184] (first compound 2 µM, partner dose 5 µM), the cell count was 88.8%.
Work on `C[C@@H](Oc1cc(-c2cnn(C3CCNCC3)c2)cnc1N)c1c(Cl)ccc(F)c1Cl` [Crizotinib] + O=C(Oc1ccc([N+](=O)[O-])cc1)N1CCC(C(O)(c2ccc3c(c2)OCO3)c2ccc3c(c2)OCO3)CC1 [JZL184] (first compound 1 µM, partner dose 5 µM) yielded a cell count of 88.1%.
Work on `COC(=O)c1sccc1S(=O)(=O)Nc1ccc(Nc2ccccc2)cc1OC` + C/C(O)=C(\C#N)C(=O)Nc1cc(Br)ccc1Br [LFM-A13] (first compound 5 µM, partner dose 10 µM) yielded a cell count of 113%.
Work on `C=CCNC1=C2C[C@@H](C)C[C@H](OC)[C@H](O)[C@@H](C)/C=C(\C)[C@H](OC(N)=O)[C@@H](OC)/C=C\C=C(/C)C(=O)NC(=CC1=O)C2=O` [Tanespimycin] + Cc1cc(SCc2sc(-c3ccc(C(F)(F)F)c(F)c3)nc2C)ccc1OCC(=O)O [GW0742] (first compound 0.01 µM, partner dose 10 µM) yielded a cell count of 110%.
`CN(C)S(=O)(=O)c1ccc2c(c1)/C(=C/c1cc3c([nH]1)CCCC3)C(=O)N2` + O=C(Oc1ccc([N+](=O)[O-])cc1)N1CCC(C(O)(c2ccc3c(c2)OCO3)c2ccc3c(c2)OCO3)CC1 [JZL184] (first compound 2 µM, partner dose 5 µM) was tested, and the cell count was 43.6%.
Work on `Nc1ncn([C@H]2C[C@H](O)[C@@H](CO)O2)c(=O)n1` [decitabine] + O=C(Oc1ccc([N+](=O)[O-])cc1)N1CCC(C(O)(c2ccc3c(c2)OCO3)c2ccc3c(c2)OCO3)CC1 [JZL184] (first compound 0.5 µM, partner dose 5 µM) yielded a cell count of 79.3%.
Compound `O=S(=O)(c1ccccc1)N(CC(F)(F)F)c1ccc(C(O)(C(F)(F)F)C(F)(F)F)cc1` + O=C(Oc1ccc([N+](=O)[O-])cc1)N1CCC(C(O)(c2ccc3c(c2)OCO3)c2ccc3c(c2)OCO3)CC1 [JZL184] (first compound 7 µM, partner dose 5 µM) has a cell count of 107%.
`Cn1cnc2c(F)c(Nc3ccc(Br)cc3Cl)c(C(=O)NOCCO)cc21` [selumetinib] + C/C(O)=C(\C#N)C(=O)Nc1cc(Br)ccc1Br [LFM-A13] (first compound 0.075 µM, partner dose 10 µM) was tested, and the cell count was 52.6%.
Work on `CO[C@@H]1[C@H](N(C)C(=O)c2ccccc2)C[C@H]2O[C@]1(C)n1c3ccccc3c3c4c(c5c6ccccc6n2c5c31)C(=O)NC4` [Midostaurin] + C/C(O)=C(\C#N)C(=O)Nc1cc(Br)ccc1Br [LFM-A13] (first compound 0.4 µM, partner dose 10 µM) yielded a cell count of 82.8%.
Compound `CN(NC(=O)CC(=O)NN(C)C(=S)c1ccccc1)C(=S)c1ccccc1` + Cc1cc(SCc2sc(-c3ccc(C(F)(F)F)c(F)c3)nc2C)ccc1OCC(=O)O [GW0742] (first compound 0.03 µM, partner dose 10 µM) has a cell count of 3.14%.
`CC(=O)c1c(C)c2cnc(Nc3ccc(N4CCNCC4)cn3)nc2n(C2CCCC2)c1=O` [palbociclib] + C/C(O)=C(\C#N)C(=O)Nc1cc(Br)ccc1Br [LFM-A13] (first compound 0.2 µM, partner dose 10 µM) was tested, and the cell count was 72.3%.
`O=C(Oc1ccc([N+](=O)[O-])cc1)N1CCC(C(O)(c2ccc3c(c2)OCO3)c2ccc3c(c2)OCO3)CC1` + O=c1cc(-c2cccc3c2Sc2ccccc2S3)oc(N2CCOCC2)c1 [KU55933] (first compound 5 µM, partner dose 5 µM) showed a cell count of 76.5%.
`C[C@@H](N)c1ccc(C(=O)Nc2ccnc3[nH]ccc23)cc1` + O=C(Oc1ccc([N+](=O)[O-])cc1)N1CCC(C(O)(c2ccc3c(c2)OCO3)c2ccc3c(c2)OCO3)CC1 [JZL184] (first compound 2 µM, partner dose 5 µM) gave a cell count of 79.8%.
Work on `CC(C)(C)c1cnc(CSc2cnc(NC(=O)C3CCNCC3)s2)o1` + O=C(Oc1ccc([N+](=O)[O-])cc1)N1CCC(C(O)(c2ccc3c(c2)OCO3)c2ccc3c(c2)OCO3)CC1 [JZL184] (first compound 0.05 µM, partner dose 5 µM) yielded a cell count of 74.4%.
Compound `C[C@@H](Oc1cc(-c2cnn(C3CCNCC3)c2)cnc1N)c1c(Cl)ccc(F)c1Cl` [Crizotinib] + C/C(O)=C(\C#N)C(=O)Nc1cc(Br)ccc1Br [LFM-A13] (first compound 1 µM, partner dose 10 µM) has a cell count of 108%.
Work on `CCN(CC)CCNC(=O)c1c(C)[nH]c(/C=C2\C(=O)Nc3ccc(F)cc32)c1C` [sunitinib] + C/C(O)=C(\C#N)C(=O)Nc1cc(Br)ccc1Br [LFM-A13] (first compound 2 µM, partner dose 10 µM) yielded a cell count of 41.8%.
For `Cc1ccc(NC(=O)c2cccc(N(C)C)c2)cc1NC(=O)c1ccc(O)cc1` + C/C(O)=C(\C#N)C(=O)Nc1cc(Br)ccc1Br [LFM-A13] (first compound 10 µM, partner dose 10 µM), the cell count was 76.8%.
In the case of `C/C(O)=C(\C#N)C(=O)Nc1cc(Br)ccc1Br` + CC(C)CCN1c2nc(Nc3cc(F)c(O)c(F)c3)ncc2N(C)C(=O)C1C [BID1870] (first compound 10 µM, partner dose 1 µM), the cell count is reported as 80.5%.
`COc1ccc(C2=N[C@@H](c3ccc(Cl)cc3)[C@@H](c3ccc(Cl)cc3)N2C(=O)N2CCNC(=O)C2)c(OC(C)C)c1` [Nutlin-3] + Cc1cc(SCc2sc(-c3ccc(C(F)(F)F)c(F)c3)nc2C)ccc1OCC(=O)O [GW0742] (first compound 0.5 µM, partner dose 10 µM) showed a cell count of 73%.
`CNC(=O)c1cc(Oc2ccc(NC(=O)Nc3ccc(Cl)c(C(F)(F)F)c3)cc2)ccn1` [sorafenib] + O=C(Oc1ccc([N+](=O)[O-])cc1)N1CCC(C(O)(c2ccc3c(c2)OCO3)c2ccc3c(c2)OCO3)CC1 [JZL184] (first compound 2 µM, partner dose 5 µM) showed a cell count of 82.6%.
`N#Cc1c(O)c2c(-c3ccc(-c4ccccc4O)cc3)csc2[nH]c1=O` + O=C(Oc1ccc([N+](=O)[O-])cc1)N1CCC(C(O)(c2ccc3c(c2)OCO3)c2ccc3c(c2)OCO3)CC1 [JZL184] (first compound 10 µM, partner dose 5 µM) showed a cell count of 127%.
`O=C(Oc1ccc([N+](=O)[O-])cc1)N1CCC(C(O)(c2ccc3c(c2)OCO3)c2ccc3c(c2)OCO3)CC1` + CCCCCCCCCCCC1=C(O)C(=O)C=C(O)C1=O [Embelin] (first compound 5 µM, partner dose 6 µM) gave a cell count of 95.4%.
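Note: cells treated in 1,536-well plates, then fixed and DAPI-stained, with nuclei counted from automated high-throughput microscope images.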
